According to publication PMC4336329 (PLoS ONE, 2015):
About 2,200 (0.71%) of roughly 310,000 compounds showed an effect of 50% or more. Effects have a minus sign here. Some of the results follow.

Biological target: human ether-à-go-go-related gene (hERG) potassium channel (human, UniProt Q12809)
Assay: primary screen, population patch clamp on CHO cells stably expressing hERG

Chain of human ether-à-go-go-related gene (hERG) potassium channel (Q12809 whole entry, looked up): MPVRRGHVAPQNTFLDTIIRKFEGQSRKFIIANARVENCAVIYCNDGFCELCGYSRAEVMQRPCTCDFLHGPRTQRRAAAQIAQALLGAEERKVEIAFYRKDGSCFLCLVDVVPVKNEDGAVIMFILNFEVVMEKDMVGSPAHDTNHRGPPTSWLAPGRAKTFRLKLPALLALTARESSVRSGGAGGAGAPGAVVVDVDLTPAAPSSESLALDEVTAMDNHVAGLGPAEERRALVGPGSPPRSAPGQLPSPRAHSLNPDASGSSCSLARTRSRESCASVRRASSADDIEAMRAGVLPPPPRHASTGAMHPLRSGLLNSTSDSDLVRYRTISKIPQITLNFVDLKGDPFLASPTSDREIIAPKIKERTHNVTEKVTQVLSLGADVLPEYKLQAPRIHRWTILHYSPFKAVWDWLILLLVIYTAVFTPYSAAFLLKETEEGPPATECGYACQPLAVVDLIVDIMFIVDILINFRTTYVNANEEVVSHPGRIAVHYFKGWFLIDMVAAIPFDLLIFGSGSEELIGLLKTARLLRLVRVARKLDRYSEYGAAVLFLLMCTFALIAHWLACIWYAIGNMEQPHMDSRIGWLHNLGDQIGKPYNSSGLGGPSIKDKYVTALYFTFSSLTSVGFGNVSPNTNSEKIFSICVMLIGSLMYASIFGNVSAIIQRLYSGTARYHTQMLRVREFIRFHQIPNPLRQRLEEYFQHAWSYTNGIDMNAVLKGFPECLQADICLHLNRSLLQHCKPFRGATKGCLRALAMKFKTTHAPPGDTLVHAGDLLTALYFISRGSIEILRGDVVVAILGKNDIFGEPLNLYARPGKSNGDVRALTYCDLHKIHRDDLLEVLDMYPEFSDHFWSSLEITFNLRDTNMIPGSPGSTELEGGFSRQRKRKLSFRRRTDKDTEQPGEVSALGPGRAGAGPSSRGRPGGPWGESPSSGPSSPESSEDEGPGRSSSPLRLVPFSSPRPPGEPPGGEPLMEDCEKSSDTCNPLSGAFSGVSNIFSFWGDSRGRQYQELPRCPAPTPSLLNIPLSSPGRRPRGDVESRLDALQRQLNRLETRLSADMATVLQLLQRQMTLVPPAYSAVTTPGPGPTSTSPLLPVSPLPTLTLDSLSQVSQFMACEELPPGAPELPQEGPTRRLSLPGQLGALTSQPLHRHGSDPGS

Row | Structure (SMILES) | hERG current change (%, negative = inhibition) at 1uM [%]
1 | Cc1ccc(-c2nnc(-c3ccccc3)o2)cc1Br | 7.85
2 | CCn1c(C)nc2c(C)[n+](CC(=O)c3ccc(Br)cc3)ccc21.[Br-] | 8.09
3 | CC1CCCN(S(=O)(=O)c2ccc(C(=O)Nc3sc4c(c3C(N)=O)CCN(C)C4)cc2)C1 (centres unmarked) | 11.5
4 | Cc1cc(C)c(NC(=O)CNC(=O)c2ccccc2SCC(=O)N2CCCC2)c(C)c1 | 12.2
5 | Cc1ccc(OCCN2CCN(C(=O)CCC(=O)Nc3nnc(C(C)C)s3)CC2)cc1 | 9.33
6 | CCN(C(=O)c1ccco1)c1nnc(-c2cccnc2)s1 | 13.4
7 | Cc1c(C(=O)Nc2ccccc2)c2cc(O)ccc2n1Cc1ccccc1 | 12.7
8 | COc1ccc(Cl)cc1NC(=O)[C@@]1(CC(=O)O)CC(/C=C/c2ccccc2)=NO1 | 12.8
9 | CC1=Nc2ccccc2/C1=C/c1c(O)[nH]c(=O)[nH]c1=O | 12.5
10 | O=C(CCNC(=O)c1ccco1)Nc1ccccc1OC(F)F | 14.4
11 | CC(=O)Oc1ccccc1C(=O)Nc1ccccc1C(=O)N1CCCCC1 | -2.56
12 | Oc1ccc2oc3c(c2c1)CCCC3 | 4.95
13 | CC(C)C(NC(=O)c1ccc(C(C)(C)C)cc1)C(=O)Nc1ccc(N2CCOCC2)cc1 (centres unmarked) | -1.41
14 | Cc1ccc(S(=O)(=O)N2CCN(C(=O)[C@H](Cc3ccccc3)NC(=O)c3ccco3)CC2)cc1C | 1.89
15 | O=C(C[n+]1cc(-c2ccc(Cl)c(Cl)c2)n2c1CCC2)OCc1ccccc1.[Br-] | -2.26
16 | CC(=O)N(Cc1cc2c(C)cc(C)cc2[nH]c1=O)C1CCCCC1 | 15.3
17 | CC(C(=O)Nc1ccccc1-c1ccccc1)N1CCN(Cc2ccccc2)CC1 (centres unmarked) | -35.6
18 | Cc1onc(-c2ccccc2)c1C(=O)Nc1ccc(-c2nnc3n2CCCCC3)cc1 | 13
19 | CC(=O)Nc1ccc(S(=O)(=O)Nc2nc3ccccc3nc2-n2ccc(=NC(=O)c3ccc(F)cc3)cc2)cc1 | 8.97
20 | O=C(c1ccncc1)N1CCN(S(=O)(=O)c2cccc([N+](=O)[O-])c2)CC1 | 2.85
21 | O=C(CNC(=O)C1CCCCC1)NCc1ccco1 | 15
22 | CCC(=NCc1cc(OC)cc(OC)c1)c1c(O)[nH]c(=O)[nH]c1=O | 5.35
23 | O=C(COC(=O)c1ccc([N+](=O)[O-])cc1)NC1CCCC1 | 14.4
